Assay results published in a collection of fitness landscapes (doi:10.1016/j.celrep.2020.107928).
Over roughly 81,000 sequences, “one-hybrid fitness for binding parS DNA” has its median near -0.17; the highest 2% begin near 0.51. The list shows a part of the results.

B1: Caulobacter ParB omega fusion; a variant is named by its letters at X, in order, B8GW30 (parent)
chain: MESVVVGEPGMSEGRRGLGRGLSALLGEVDAAPAQAPGEQLGGSREAPIEILQRNPDQPRRTFREEDLEDLSNSIREKGVLQPILVRPSPDTAGEYQIVAGERAWRAAQRAGLKTVPIMVRELDDLAVLEIGIIENVQRADLNVLEEALSYKVLMEKFERTQENIAQTIGKSXSHVANXMRLLXLPDEVQSYLVSGELTAXHARAIAAAADPVALAKQIIEGGLSVRETEALARKAPNLSAGKSKGGRPPRVKDTDTQALESDLSSVLGLDVSIDHRGSTGTLTITYATLEQLDDLCNRLTRGI

Variants of: B1
Test: one-hybrid fitness for binding parS DNA (scaled: cognate 1, non-cognate 0); higher = stronger binding
Details: with parS DNA site
How it was run: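 Values were rescaled so that cognate is 1 and non-cognate is 0. Each is a fitness, the log change in a variant's read ratio to wild type from Illumina reads of plasmids before and after selection, with three replicate libraries pooled and variants under 10 reads dropped. Selection of the Caulobacter ParB libraries, four specificity codons randomised, used E. coli USO with a HIS3 reporter, site 19 bp from the promoter, on M9-minus-histidine with 0.1 mM IPTG and 5 mM 3-AT for 48 hours at 37°C.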

one-hybrid fitness for binding parS DNA, 0.367:
RHPC

one-hybrid fitness for binding parS DNA, 0.423:
RQMN

one-hybrid fitness for binding parS DNA, 1.02:
RMQS

one-hybrid fitness for binding parS DNA, 0.895:
RWRC

one-hybrid fitness for binding parS DNA, 0.375:
RKHN

one-hybrid fitness for binding parS DNA, 0.635:
RWDC

one-hybrid fitness for binding parS DNA, 0.248:
VRHM

one-hybrid fitness for binding parS DNA, 0.795:
RKVT

one-hybrid fitness for binding parS DNA, 0.282:
RDKC

one-hybrid fitness for binding parS DNA, ≤ 0.2:
TGHC
IAMP
KHPK
EARD
SECR
DFTE
FFRR
RKNL
YKVT
CYYA
NPSL
QWVV
HKTC
FKIG
PALF
MKTT
PQEM
RNPL
LRKM
RDTW
VFTL
WVQS
VAYE
QSWP
TPHA
DFKL
ENIR
YQEG
AKSN
TSVN
NYFE
GYTV
QEQV
DVAA
REPS
DQND
VHFW
YSCN
SPGG
YLNY
HYSS
NADK
VTHG
WRQN
HVKI
TFMD
HCWV
RPFA
VNPS
GRLC
SWYD
NLYR
SSKQ
QKPL
SSTK
MAWK
RIVV
QKPI
QQSI
PHTM
QMPG
SIDR
KQRQ
CEDV
RAKP
CMNS
NNHL
HMPF
MAST
WPYP
KIPR
EMSS
LDNA
NRVG
TIDT
LNSN
ICMR
AMSC
FASL
YQVF
NQWC
QTRG
PMWV
CSIM
SRMT
SHVS
PRRL
VTGS
TPCV
YENK
REYC
SPIN
YLTY
SSTF
DSRC
MEDY
GHHA
HVGT
GVRD
WWAS
PNNW
VLLT
QCVY
ADRC
FNGA
SCWS
LASY
HIMN
HANL
QLKE
SQFR
LCWV
CEGR
QHFK
DGIR
QYEC
QAQP
VEIA
QLHQ
STIY
SRQG
SLPI
GVKW
APPM
QSTT
YSKH
TRMF
CYAC
KWTG
GLLY
KTIS
FRPC
GMSV
KDLE
RTRQ
DDCL
RTRR
YSPI
TMDC
PQTS
VYRR
NQTG
HKSQ
WSHE
PHLG
PSCI
NLCE
VIHC
VAAM
RVPP
AKLI
HSMR
NSTV
VLAP
EIQG
KEHC
NYTR
SHSC
LSED
YNTN
PPYT
HPHF
AFRS
YLSY
QHPT
PWPF
CCLC
NRNH
QSRG
GWHS
DPQR
IWTG
RNEY
WLKW
PFNK
HSRC
FTRY
LGMG
KTSW
QSCY
PCHM
DEWR
YSAC
NREV
AHAL

one-hybrid fitness for binding parS DNA, 0.373:
RIRM
